Assay results published in patent publication US20240076343A1.
Each block holds one binder with its values, some of them ahead of it.

Legend:
Assay in all cases: cell-based or functional assay
[1] = target: intermediate affinity hIL-2 receptor complex (IL-2Rβγ) (human) (UniProt P14784)
[2] = target: high-affinity hIL-2 receptor (IL-2Rαβγ) on NK-92 cells (human) (UniProt P01589)
[3] = target: intermediate affinity hIL-2 receptor complex (IL-2Rβγ) on TF1+IL-2Rβ cells (human) (UniProt P14784)
[4] = target: high-affinity hIL-2 receptor (IL-2Rαβγ) (human) (UniProt P01589)
[5] = target: intermediate affinity hIL-2 receptor (hIL-2Rβγ) on TF1+IL-2Rβ cells (human) (UniProt P14784)

Agonistic Activity (TF1 + IL-2Rβ), pSTAT5 titration [1]: 80%
Fold change from rhIL-2 (TF1 + IL-2Rβ), pSTAT5 titration [1]: 50 fold
Fold change from hIL-2 (NK-92) [2]: 14 fold
Fold change from rhIL-2 (NK-92) [2]: > 10000 fold
Fold change from hIL-2 (TF1 + IL-2Rβ) [3]: 2 fold
Agonistic Activity (NK-92), pSTAT5 titration [4]: 60%
Fold change from rhIL-2 (NK-92), pSTAT5 titration [4]: > 10000 fold
Fold change from rhIL-2 (TF1 + IL-2Rβ) [5]: 147 fold
B1: 1H3-hIgG1-L6-hIL-2 (R38E/D84R) (protein)
heavy: EVQLVESGGGLVQPGRSLKLSCAVSGFTFSDYAMAWVRQAPKKGLEWVATISYDGSRTYYRDSVKGRFTISRDNAKITLYLQMDSLRSEDTATYYCARHGSGYFDYWGQGVMVTVSS[not shown - about 450 residues with a human IgG1 Fc and changes]
light: DTVLTQSPALAVSPGERVTISCRASESVRTGVHWYQQKPGQQPKLLIYGASNLESGVPARFSGSGSGTDFTLTIDPVEADDTATYFCQQSWNDPFTFGSGTKLEIKRTVAAPSVFIFPPSDEQLKSGTASVVCLLNNFYPREAKVQWKVDNALQSGNSQESVTEQDSKDSTYSLSSTLTLSKADYEKHKVYACEVTHQGLSSPVTKSFNRGEC

Agonistic Activity (TF1 + IL-2Rβ), pSTAT5 titration [1]: 60%
Fold change from rhIL-2 (TF1 + IL-2Rβ), pSTAT5 titration [1]: 181 fold
Fold change from hIL-2 (NK-92) [2]: 11 fold
Fold change from rhIL-2 (NK-92) [2]: > 10000 fold
Fold change from hIL-2 (TF1 + IL-2Rβ) [3]: 3 fold
Agonistic Activity (NK-92), pSTAT5 titration [4]: 90%
Fold change from rhIL-2 (NK-92), pSTAT5 titration [4]: > 10000 fold
Fold change from rhIL-2 (TF1 + IL-2Rβ) [5]: 417 fold
B2: 1H3-hIgG1-L6-hIL-2 (R38E/E61R/D20A) (protein)
heavy: EVQLVESGGGLVQPGRSLKLSCAVSGFTFSDYAMAWVRQAPKKGLEWVATISYDGSRTYYRDSVKGRFTISRDNAKITLYLQMDSLRSEDTATYYCARHGSGYFDYWGQGVMVTVSS[not shown - human IgG1 constant region]SGGGGSAPTSSSTKKTQLQLEHLLLALQMILNGINNYKNPKLTEMLTFKFYMPKKATELKHLQCLERELKPLEEVLNLAQSKNFHLRPRDLISNINVIVLELKGSETTFMCEYADETATIVEFLNRWITFCQSIISTLT
light: B1 light

Agonistic Activity (TF1 + IL-2Rβ), pSTAT5 titration [1]: 70%
Fold change from rhIL-2 (TF1 + IL-2Rβ), pSTAT5 titration [1]: 62 fold
Agonistic Activity (NK-92) [2]: 50%
Fold change from hIL-2 (NK-92) [2]: 12 fold
Fold change from rhIL-2 (NK-92) [2]: > 10000 fold
Fold change from hIL-2 (TF1 + IL-2Rβ) [3]: 3 fold
Agonistic Activity (NK-92), pSTAT5 titration [4]: 40%
Fold change from rhIL-2 (NK-92), pSTAT5 titration [4]: > 10000 fold
Fold change from rhIL-2 (TF1 + IL-2Rβ) [5]: 984 fold
B3: 1H3-hIgG1-L6-hIL-2 (R38D/E61R/D20A) (protein)
heavy: EVQLVESGGGLVQPGRSLKLSCAVSGFTFSDYAMAWVRQAPKKGLEWVATISYDGSRTYYRDSVKGRFTISRDNAKITLYLQMDSLRSEDTATYYCARHGSGYFDYWGQGVMVTVSS[not shown - human IgG1 constant region]SGGGGSAPTSSSTKKTQLQLEHLLLALQMILNGINNYKNPKLTDMLTFKFYMPKKATELKHLQCLERELKPLEEVLNLAQSKNFHLRPRDLISNINVIVLELKGSETTFMCEYADETATIVEFLNRWITFCQSIISTLT
light: B1 light

Agonistic Activity (TF1 + IL-2Rβ), pSTAT5 titration [1]: 70%
Fold change from rhIL-2 (TF1 + IL-2Rβ), pSTAT5 titration [1]: 300 fold
Fold change from hIL-2 (NK-92) [2]: 4 fold
Fold change from rhIL-2 (NK-92) [2]: 25 fold
Fold change from hIL-2 (TF1 + IL-2Rβ) [3]: 5 fold
Agonistic Activity (NK-92), pSTAT5 titration [4]: 90%
Fold change from rhIL-2 (NK-92), pSTAT5 titration [4]: 62 fold
Agonistic Activity (TF1 + IL-2Rβ) [5]: 90%
Fold change from rhIL-2 (TF1 + IL-2Rβ) [5]: 82 fold
B4: 1H3-hIgG1-L6-hIL-2 (D20A/E95A/Y45A) (protein)
heavy: EVQLVESGGGLVQPGRSLKLSCAVSGFTFSDYAMAWVRQAPKKGLEWVATISYDGSRTYYRDSVKGRFTISRDNAKITLYLQMDSLRSEDTATYYCARHGSGYFDYWGQGVMVTVSS[not shown - human IgG1 constant region]SGGGGSAPTSSSTKKTQLQLEHLLLALQMILNGINNYKNPKLTRMLTFKFAMPKKATELKHLQCLEEELKPLEEVLNLAQSKNFHLRPRDLISNINVIVLALKGSETTFMCEYADETATIVEFLNRWITFCQSIISTLT
light: B1 light

Agonistic Activity (TF1 + IL-2Rβ), pSTAT5 titration [1]: 60%
Fold change from rhIL-2 (TF1 + IL-2Rβ), pSTAT5 titration [1]: 130 fold
Agonistic Activity (NK-92) [2]: 60%
Fold change from hIL-2 (NK-92) [2]: 13 fold
Fold change from rhIL-2 (NK-92) [2]: > 10000 fold
Fold change from hIL-2 (TF1 + IL-2Rβ) [3]: 3 fold
Agonistic Activity (NK-92), pSTAT5 titration [4]: 40%
Fold change from rhIL-2 (NK-92), pSTAT5 titration [4]: > 10000 fold
Fold change from rhIL-2 (TF1 + IL-2Rβ) [5]: 1030 fold
B5: 1H3-hIgG1-L6-hIL-2 (R38A/E61R/D20A) (protein)
heavy: EVQLVESGGGLVQPGRSLKLSCAVSGFTFSDYAMAWVRQAPKKGLEWVATISYDGSRTYYRDSVKGRFTISRDNAKITLYLQMDSLRSEDTATYYCARHGSGYFDYWGQGVMVTVSS[not shown - human IgG1 constant region]SGGGGSAPTSSSTKKTQLQLEHLLLALQMILNGINNYKNPKLTAMLTFKFYMPKKATELKHLQCLERELKPLEEVLNLAQSKNFHLRPRDLISNINVIVLELKGSETTFMCEYADETATIVEFLNRWITFCQSIISTLT
light: B1 light

Agonistic Activity (TF1 + IL-2Rβ), pSTAT5 titration [1]: 60%
Fold change from rhIL-2 (TF1 + IL-2Rβ), pSTAT5 titration [1]: 87 fold
Agonistic Activity (NK-92) [2]: 70%
Fold change from hIL-2 (NK-92) [2]: 21 fold
Fold change from rhIL-2 (NK-92) [2]: 2100 fold
Fold change from hIL-2 (TF1 + IL-2Rβ) [3]: 4 fold
Agonistic Activity (NK-92), pSTAT5 titration [4]: 70%
Fold change from rhIL-2 (NK-92), pSTAT5 titration [4]: > 10000 fold
Agonistic Activity (TF1 + IL-2Rβ) [5]: 70%
Fold change from rhIL-2 (TF1 + IL-2Rβ) [5]: 356 fold
B6: 1H3-hIgG1-L6-hIL-2 (D20A/E95A/F42R) (protein)
heavy: EVQLVESGGGLVQPGRSLKLSCAVSGFTFSDYAMAWVRQAPKKGLEWVATISYDGSRTYYRDSVKGRFTISRDNAKITLYLQMDSLRSEDTATYYCARHGSGYFDYWGQGVMVTVSS[not shown - human IgG1 constant region]SGGGGSAPTSSSTKKTQLQLEHLLLALQMILNGINNYKNPKLTRMLTRKFYMPKKATELKHLQCLEEELKPLEEVLNLAQSKNFHLRPRDLISNINVIVLALKGSETTFMCEYADETATIVEFLNRWITFCQSIISTLT
light: B1 light
